Experimental data reported in the supplement of paper PMC8728848.
This is one part of the list.

Columns and labels:
Assay in all cases: glycan array binding signal (z-score within array); higher = stronger binding
Settings in all cases: glycan notation: IUPAC condensed, linker removed
[1] = biological target: Gal(b1-4)GlcNAc(b1-3)Gal(b1-4)GlcNAc(b1-2)Man(a1-3)[Gal(b1-4)GlcNAc(b1-3)Gal(b1-4)GlcNAc(b1-2)Man(a1-6)]Man(b1-4)GlcNAc(b1-4)GlcNAc
Outline: (§1)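 Glycan array data came from 3228 arrays in the Consortium for Functional Glycomics database, and only arrays with an available protein sequence were kept. Glycan names were put into IUPAC-condensed notation, and columns mapping to the same glycan were averaged. The binding signal is a within-array Z-score, averaged across arrays of one protein sequence run at different concentrations or buffers and across linkers. A negative Z-score can be read as non-binding.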

[2] = biological target: Gal(b1-4)GlcNAc(b1-3)Gal(b1-4)GlcNAc(b1-2)Man(a1-3)[Gal(b1-4)GlcNAc(b1-3)Gal(b1-4)GlcNAc(b1-2)Man(a1-6)]Man(b1-4)GlcNAc(b1-4)[Fuc(a1-6)]GlcNAc
Outline: as §1

[3] = biological target: Gal(b1-4)GlcNAc(b1-3)Gal(b1-4)GlcNAc(b1-2)[Gal(b1-4)GlcNAc(b1-3)Gal(b1-4)GlcNAc(b1-6)]Man(a1-6)[Gal(b1-4)GlcNAc(b1-3)Gal(b1-4)GlcNAc(b1-2)Man(a1-3)]Man(b1-4)GlcNAc(b1-4)GlcNAc
Outline: as §1

[4] = biological target: Gal(b1-4)GlcNAc(b1-3)Gal(b1-4)GlcNAc(b1-2)[Gal(b1-4)GlcNAc(b1-3)Gal(b1-4)GlcNAc(b1-6)]Man(a1-6)[Gal(b1-4)GlcNAc(b1-3)Gal(b1-4)GlcNAc(b1-2)Man(a1-3)]Man(b1-4)GlcNAc(b1-4)[Fuc(a1-6)]GlcNAc
Outline: as §1

[5] = biological target: Gal(b1-4)GlcNAc(b1-3)Gal(b1-4)GlcNAc(b1-3)Gal(b1-4)GlcNAc
Outline: as §1

[6] = biological target: Gal(b1-4)GlcNAc(b1-3)Gal(b1-4)GlcNAc(b1-3)Gal(b1-4)GlcNAc(b1-2)Man(a1-3)[Gal(b1-4)GlcNAc(b1-3)Gal(b1-4)GlcNAc(b1-3)Gal(b1-4)GlcNAc(b1-2)Man(a1-6)]Man(b1-4)GlcNAc(b1-4)GlcNAc
Outline: as §1

[7] = biological target: Gal(b1-4)GlcNAc(b1-3)Gal(b1-4)GlcNAc(b1-3)Gal(b1-4)GlcNAc(b1-2)Man(a1-3)[Gal(b1-4)GlcNAc(b1-3)Gal(b1-4)GlcNAc(b1-3)Gal(b1-4)GlcNAc(b1-2)Man(a1-6)]Man(b1-4)GlcNAc(b1-4)[Fuc(a1-6)]GlcNAc
Outline: as §1

[8] = biological target: Gal(b1-4)GlcNAc(b1-3)Gal(b1-4)GlcNAc(b1-3)Gal(b1-4)GlcNAc(b1-2)[Gal(b1-4)GlcNAc(b1-3)Gal(b1-4)GlcNAc(b1-3)Gal(b1-4)GlcNAc(b1-6)]Man(a1-6)[Gal(b1-4)GlcNAc(b1-3)Gal(b1-4)GlcNAc(b1-3)Gal(b1-4)GlcNAc(b1-2)Man(a1-3)]Man(b1-4)GlcNAc(b1-4)[Fuc(a1-6)]GlcNAc
Outline: as §1

[9] = biological target: Gal(b1-4)GlcNAc(b1-3)Gal(b1-4)GlcNAc(b1-3)Gal(b1-4)GlcNAc(b1-3)Gal(b1-4)GlcNAc(b1-2)Man(a1-3)[Gal(b1-4)GlcNAc(b1-3)Gal(b1-4)GlcNAc(b1-3)Gal(b1-4)GlcNAc(b1-3)Gal(b1-4)GlcNAc(b1-2)Man(a1-6)]Man(b1-4)GlcNAc(b1-4)GlcNAc
Outline: as §1

[10] = biological target: Gal(b1-4)GlcNAc(b1-3)Gal(b1-4)GlcNAc(b1-3)Gal(b1-4)GlcNAc(b1-3)Gal(b1-4)GlcNAc(b1-2)Man(a1-3)[Gal(b1-4)GlcNAc(b1-3)Gal(b1-4)GlcNAc(b1-3)Gal(b1-4)GlcNAc(b1-3)Gal(b1-4)GlcNAc(b1-2)Man(a1-6)]Man(b1-4)GlcNAc(b1-4)[Fuc(a1-6)]GlcNAc
Outline: as §1

[11] = biological target: Gal(b1-4)GlcNAc(b1-3)Gal(b1-4)GlcNAc(b1-3)Gal(b1-4)GlcNAc(b1-3)Gal(b1-4)GlcNAc(b1-2)[Gal(b1-4)GlcNAc(b1-3)Gal(b1-4)GlcNAc(b1-3)Gal(b1-4)GlcNAc(b1-3)Gal(b1-4)GlcNAc(b1-6)]Man(a1-6)[Gal(b1-4)GlcNAc(b1-3)Gal(b1-4)GlcNAc(b1-3)Gal(b1-4)GlcNAc(b1-3)Gal(b1-4)GlcNAc(b1-2)Man(a1-3)]Man(b1-4)GlcNAc(b1-4)[Fuc(a1-6)]GlcNAc
Outline: as §1

[12] = biological target: Gal(b1-4)GlcNAc(b1-3)Gal(b1-4)GlcNAc(b1-3)Gal(b1-4)GlcNAc(b1-3)Gal(b1-4)GlcNAc(b1-3)Gal(b1-4)GlcNAc(b1-2)Man(a1-3)[Gal(b1-4)GlcNAc(b1-3)Gal(b1-4)GlcNAc(b1-3)Gal(b1-4)GlcNAc(b1-3)Gal(b1-4)GlcNAc(b1-3)Gal(b1-4)GlcNAc(b1-2)Man(a1-6)]Man(b1-4)GlcNAc(b1-4)GlcNAc
Outline: as §1

[13] = biological target: Gal(b1-4)GlcNAc(b1-3)Gal(b1-4)GlcNAc(b1-3)Gal(b1-4)GlcNAc(b1-3)Gal(b1-4)GlcNAc(b1-3)Gal(b1-4)GlcNAc(b1-2)Man(a1-3)[Gal(b1-4)GlcNAc(b1-3)Gal(b1-4)GlcNAc(b1-3)Gal(b1-4)GlcNAc(b1-3)Gal(b1-4)GlcNAc(b1-3)Gal(b1-4)GlcNAc(b1-2)Man(a1-6)]Man(b1-4)GlcNAc(b1-4)[Fuc(a1-6)]GlcNAc
Outline: as §1

[14] = biological target: Gal(b1-4)GlcNAc(b1-3)Gal(b1-4)GlcNAc(b1-3)Gal(b1-4)GlcNAc(b1-3)Gal(b1-4)GlcNAc(b1-3)Gal(b1-4)GlcNAc(b1-2)[Gal(b1-4)GlcNAc(b1-3)Gal(b1-4)GlcNAc(b1-3)Gal(b1-4)GlcNAc(b1-3)Gal(b1-4)GlcNAc(b1-3)Gal(b1-4)GlcNAc(b1-6)]Man(a1-6)[Gal(b1-4)GlcNAc(b1-3)Gal(b1-4)GlcNAc(b1-3)Gal(b1-4)GlcNAc(b1-3)Gal(b1-4)GlcNAc(b1-3)Gal(b1-4)GlcNAc(b1-2)Man(a1-3)]Man(b1-4)GlcNAc(b1-4)[Fuc(a1-6)]GlcNAc
Outline: as §1

[15] = biological target: Gal(b1-4)GlcNAc(b1-3)Gal(b1-4)GlcNAc(b1-3)Gal(b1-4)GlcNAc(b1-3)Gal(b1-4)GlcNAc(b1-3)Gal(b1-4)GlcNAc(b1-3)Gal(b1-4)GlcNAc(b1-2)Man(a1-3)[Gal(b1-4)GlcNAc(b1-3)Gal(b1-4)GlcNAc(b1-3)Gal(b1-4)GlcNAc(b1-3)Gal(b1-4)GlcNAc(b1-3)Gal(b1-4)GlcNAc(b1-3)Gal(b1-4)GlcNAc(b1-2)Man(a1-6)]Man(b1-4)GlcNAc(b1-4)GlcNAc
Outline: as §1

[16] = biological target: Gal(b1-4)GlcNAc(b1-3)Gal(b1-4)GlcNAc(b1-3)GalNAc
Outline: as §1

[17] = biological target: Gal(b1-4)GlcNAc(b1-3)Gal(b1-4)GlcNAc(b1-3)[Gal(b1-4)GlcNAc(b1-3)Gal(b1-4)GlcNAc(b1-6)]GalNAc
Outline: as §1

[18] = biological target: Gal(b1-4)GlcNAc(b1-3)Gal(b1-4)GlcNAc(b1-6)[Gal(b1-3)]GalNAc
Outline: as §1

[19] = biological target: Gal(b1-4)GlcNAc(b1-3)Gal(b1-4)[Fuc(a1-3)]GlcNAc(b1-3)Gal(b1-4)[Fuc(a1-3)]GlcNAc
Outline: as §1

[20] = biological target: Gal(b1-4)GlcNAc(b1-3)GalNAc
Outline: as §1

[21] = biological target: Gal(b1-4)GlcNAc(b1-3)[Fuc(a1-3)GlcNAc(b1-6)]Gal(b1-4)Glc
Outline: as §1

[22] = biological target: Gal(b1-4)GlcNAc(b1-3)[Gal(b1-4)GlcNAc(b1-6)]Gal(b1-4)GlcNAc
Outline: as §1

[23] = biological target: Gal(b1-4)GlcNAc(b1-3)[Gal(b1-4)GlcNAc(b1-6)]GalNAc
Outline: as §1

[24] = biological target: Gal(b1-4)GlcNAc(b1-3)[GlcNAc(b1-6)]Gal(b1-4)GlcNAc
Outline: as §1

[25] = biological target: Gal(b1-4)GlcNAc(b1-6)Gal(b1-4)GlcNAc
Outline: as §1

[26] = biological target: Gal(b1-4)GlcNAc(b1-6)GalNAc
Outline: as §1

[27] = biological target: Gal(b1-4)GlcNAc(b1-6)[Gal(b1-3)]GalNAc
Outline: as §1

[28] = biological target: Gal(b1-4)GlcNAc(b1-6)[Gal(b1-4)GlcNAc(b1-3)]GalNAc
Outline: as §1

[29] = biological target: Gal(b1-4)GlcNAc6P
Outline: as §1

[30] = biological target: Gal(b1-6)Gal
Outline: as §1

[31] = biological target: Gal3S(b1-3)GalNAc
Outline: as §1

[32] = biological target: Gal3S(b1-3)GlcNAc
Outline: as §1

[33] = biological target: Gal3S(b1-3)[Fuc(a1-4)]GlcNAc
Outline: as §1

[34] = biological target: Gal3S(b1-4)Glc
Outline: as §1

[35] = biological target: Gal3S(b1-4)Glc6S
Outline: as §1

[36] = biological target: Gal3S(b1-4)GlcNAc
Outline: as §1

[37] = biological target: Gal3S(b1-4)[Fuc(a1-3)]Glc6S
Outline: as §1

B1: UDA (Urtica dioica), P11218 (protein)
chain: MMMRFLSAVVIMSSAMAVGLVSAQRCGSQGGGGTCPALWCCSIWGWCGDSEPYCGRTCENKCWSGERSDHRCGAAVGNPPCGQDRCCSVHGWCGGGNDYCSGSKCQYRCSSSVRGPRVALSGNSTANSIGNVVVTEPLFDQMFSHRKDCPSQGFYSYHSFLVAAESFPAFGTIGDVATRKREVAAFLAHISQATSGERSDVENPHAWGLCHINTTTVTENDFCTSSDWPCAAGKKYSPRGPIQLTHNFNYGLAGQAIGEDLIQNPDLVEKDPIISFKTALWFWMSQHDNKPSCHDIVLNANSAANRIPNKGVIGNIISRAFGHDDFAVRSSSIGFYKRYCDMLGVSYGHDLKYWFDNTPSSEFQRIQMRVAA
glycan array binding signal (z-score) [1]: -0.033 | glycan array binding signal (z-score) [2]: 0.015 | glycan array binding signal (z-score) [3]: -0.126 | glycan array binding signal (z-score) [4]: -0.147 | glycan array binding signal (z-score) [5]: 0.075 | glycan array binding signal (z-score) [6]: 0.012 | glycan array binding signal (z-score) [7]: 0.008 | glycan array binding signal (z-score) [8]: -0.14 | glycan array binding signal (z-score) [9]: 0.01 | glycan array binding signal (z-score) [10]: 0.114 | glycan array binding signal (z-score) [11]: -0.041 | glycan array binding signal (z-score) [12]: 0.34 | glycan array binding signal (z-score) [13]: 1.52 | glycan array binding signal (z-score) [14]: 0.237 | glycan array binding signal (z-score) [15]: 0.731 | glycan array binding signal (z-score) [16]: -0.132 | glycan array binding signal (z-score) [17]: -0.112 | glycan array binding signal (z-score) [18]: -0.119 | glycan array binding signal (z-score) [19]: -0.19 | glycan array binding signal (z-score) [20]: -0.177 | glycan array binding signal (z-score) [21]: -0.173 | glycan array binding signal (z-score) [22]: 0.029 | glycan array binding signal (z-score) [23]: -0.257 | glycan array binding signal (z-score) [24]: -0.172 | glycan array binding signal (z-score) [25]: 0.522 | glycan array binding signal (z-score) [26]: -0.162 | glycan array binding signal (z-score) [27]: -0.18 | glycan array binding signal (z-score) [28]: -0.175 | glycan array binding signal (z-score) [29]: -0.175 | glycan array binding signal (z-score) [30]: -0.173 | glycan array binding signal (z-score) [31]: -0.179 | glycan array binding signal (z-score) [32]: -0.182 | glycan array binding signal (z-score) [33]: -0.17 | glycan array binding signal (z-score) [34]: -0.179 | glycan array binding signal (z-score) [35]: -0.185 | glycan array binding signal (z-score) [36]: 0.131 | glycan array binding signal (z-score) [37]: -0.167
